The record followed here is PubChem BioAssay AID720533 (National Center for Advancing Translational Sciences (NCATS), 2013).

The campaign covered roughly 18,000 compounds. About 750 (4.2%) were called active. Not shown: some 13% with an inconclusive outcome. The call rests on the fitted dose curve; tested in HEK293 cells. Not every entry of the source has a single result; some have several. The list is limited to them. There may be further records. The values listed for one entry repeat one measurement across runs, samples, wells, individuals or studies. Marks such as (2×) stand for listed records that agree.
Potency means the concentration at half of the fitted maximal effect.

This assay in a line: qHTS for Inhibitors of binding or entry into cells for Lassa Virus. Conditions: Lassa virus pseudotyped entry inhibition, cell-based qHTS.
As to `COc1c(C)c2c(c(O)c1C/C=C(\C)CCC(=O)O)C(=O)OC2`, the Potency result was “active: 1 µM (2×), 1.41 µM (2×), 398 nM, 891 nM [separate samples]”.
